# Measurements as given in PubChem BioAssay AID504444 (National Center for Advancing Translational Sciences (NCATS), 2011).
# Among all 360,000 compounds or so, about 7,500 (2.1%) were called active. About 20% were inconclusive and are not listed. The call rests on the fitted dose curve; in most records, active means well fitted inhibition curve with a large enough effect; inconclusive means small, poorly fitted or top-dose-only effect, or effect the other way; inactive means flat fitted curve, though single readings scatter. This is a selection; strong and weak results do not stand in their true shares. Some compounds were tested as several samples or in several runs, with calls that do not always agree.
# Assay: Nrf2 qHTS screen for inhibitors; further: nearly all actives have a fitted effect of over 60% in size
# Conditions: A549 ARE-Fluc reporter, luciferase luminescence, 18-24 h; series mostly up to 46 µM; activity change, negative = inhibition: at the top concentration
# Procedure, shortened: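 Reporter: ARE-Fluc in A549. Exposure: 18-24 h, 37 °C, 5% CO2, 5% FBS OPTI-MEM. Readouts: fluorescent cytotoxicity (CellTiter-Fluor), then luminescent Nrf2 signal after BugLite.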
# On the % scale 0 is the no-effect control and ±100 the full control effect; potency means the concentration at half of the fitted maximal effect.
SMILES,"activity change, negative = inhibition",Potency
COc1cccc(N2CCN(C(=O)c3cc4c(=O)n(Cc5ccccc5)ccc4nc3C)CC2)c1,inactive: 3.62%,–
CCC1(C)Cc2c(sc3[nH]c(=S)n(Cc4ccccc4)c(=O)c23)CO1 (stereo not drawn),–,active: 16.4 µM
OCC[C@@H]1C[C@H](O)[C@@H](O)[C@@]2(Cc3ccccc3CO2)O1,inactive: -7.48%,–
Cc1ncc(C[n+]2csc(CCO)c2C)c(N)n1,inactive: 2.14%,–
Cc1c(Cl)cnc(NC(=O)COC(=O)[C@@H](NC(=O)c2ccco2)C(C)C)c1Cl,inactive: 5.64%,–
COc1ccc(OC2CCN(S(=O)(=O)c3ccc(OC)cc3)CC2)cc1,inactive: -1.62%,–
C=CC[C@H](CC(=O)N(CCO)Cc1ccccc1)C(=O)N[C@H](C)COC(=O)[C@@H](CC=C)CC(=O)OC(C)(C)C,inactive: -17.3%,–
O=C(CCCN1C(=O)/C(=C/c2cccs2)SC1=S)Nc1cccnc1,inactive: 4.05%,–
C[C@@H]1CCC[C@]2(O[C@H](CCO)C[C@H](O)[C@H]2O)O1,inactive: -1.24%,–
COC(=O)c1cc(S(=O)(=O)NCC2CCN(Cc3ccc(F)cc3)CC2)cn1C,inactive: -9.48%,–
COc1ccc(C2=NS(=O)(=O)N(C)C(C(=O)Nc3cc(C)ccc3O)=C2)cc1OC,inactive: -7.57%,–
O=C(Nc1nnc(S(=O)(=O)N2CCCCC2)s1)c1ccc(Cl)cc1,inactive: -6.23%,–
CCOc1ccccc1CNC(=O)c1nn(C)c2c1CS(=O)(=O)c1ccccc1-2,inactive: -22.6%,–
CC(C)(C)OC(=O)C[C@H]1C/C=C\C[C@H](CC(=O)N[C@H](CO)Cc2ccccc2)C(=O)N[C@H](Cc2ccccc2)COC1=O,inactive: -15.6%,–
Cc1ccccc1-c1nc(CS(=O)CC(=O)NCCc2ccc(Cl)cc2)c(C)o1 (stereo not drawn),inactive: 8.31%,–
COc1cccc(NC(=O)c2ccc(CN3CCc4ccccc4C3)cc2)c1,–,active: 14.6 µM
O=C1N[C@@H](c2ccccc2)COC(=O)[C@H](Cc2ccc(F)cc2)C/C=C\C[C@@H]1CC(=O)N(CCO)Cc1ccccc1,inactive: -25.7%,–
CCOC(=O)c1sc2nc(C)nc(NCc3ccccc3OC)c2c1C,–,active: 20.6 µM
Cn1ncc2c(O/N=C(\N)c3ccc(C(C)(C)C)cc3)ncnc21,–,active: 18.4 µM
Cc1ccc(SCC(c2ccccc2)N2CCN(CCc3ccccc3)CCC2=O)cc1 (stereo not drawn),inactive: -3.68%,–
Cc1ccc2nsnc2c1NC(=O)c1ccc(-c2cc(Cl)ccc2Cl)o1,–,active: 13 µM
CC1CN(S(=O)(=O)c2cccc(C(=O)Nc3ccccc3N3CCCCC3)c2)CC(C)O1 (stereo not drawn),–,active: 16.4 µM

SMILES,"activity change, negative = inhibition",Potency
CCC1CN(C(=O)NCc2ccccc2)c2cc(Cl)ccc2O1 (stereo not drawn),inactive: 19.1%,–
C[C@H](CO)N1C[C@H](C)[C@@H](CN(C)C(=O)Nc2ccc(C(F)(F)F)cc2)Oc2ccc(NC(=O)NC3CCCCC3)cc2C1=O,inactive: 12.5%,–
CC(=O)c1ccc(N2CCN(C(=O)CCCn3c(=O)[nH]c4ccsc4c3=O)CC2)cc1,inactive: -4.5% [at 9.27 µM],–
O=C(Nc1nnc(S(=O)(=O)N2CCCCCC2)s1)c1ccc(Cl)cc1,inactive: -10%,–
COc1ccccc1N1CCN(C(=O)CNS(=O)(=O)c2ccc(Br)s2)CC1,inactive: -0.0254%,–
CC1CCCCN1C(=O)CCS(=O)(=O)c1cc2c(cc1Cl)NC(=O)CO2 (stereo not drawn),inactive: 14%,–
Cc1ccc(SCC(Cc2ccccc2)N2CCN(CC(C)C)CCC2=O)cc1 (stereo not drawn),inactive: 2.56%,–
COc1ccc(NC(=O)c2nc[nH]c2C(=O)N[C@H](C)c2ccccc2)cc1,inactive: -26.9%,–
Cc1cccc(NS(=O)(=O)c2nnc(NC(=O)c3cccc(C)c3)s2)c1,inactive: 2.03%,–
CCc1ccc(S(=O)(=O)Nc2cc3c(cc2N2CCOCC2)n(C)c(=O)c(=O)n3C)cc1,inactive: -10.9%,–
O=C(C1=C[C@@H](c2ccc(Br)cc2)C[C@@H](OCCCCO)O1)N1CCN(Cc2ccc3c(c2)OCO3)CC1,inactive: -21.6%,–
O=C(Nc1ccc(C(F)(F)F)cc1)C1CCN(c2cnccn2)CC1,inactive: 15.4%,–
O=C1N[C@@H](Cc2ccccc2)COC(=O)[C@H](Cc2ccc(F)cc2)C/C=C\C[C@@H]1CC(=O)N(CCO)Cc1ccccc1,inactive: -20.7%,–
COC(=O)/C=C1/S/C(=N/N=C/c2ccco2)NC1=O,inactive: -5.02%,–
COc1ccc2ccc3c(c2c1)N=C[C@]1(O3)N(C)c2ccccc2C1(C)C,inactive: -15.1%,–
O=C1NCCOC(=O)[C@@H](Cc2ccc(F)cc2)C/C=C\C[C@@H]1CC(=O)N(CCO)Cc1ccccc1,inactive: -3.74%,–
O=C(c1ccc2c(c1)N(Cc1ccc(F)cc1)C(=O)c1ccccc1S2(=O)=O)N1CCN(c2ccccn2)CC1,inactive: 17.2%,–
CC1=CC(C)(C)N(S(=O)(=O)c2ccc(C)cc2)c2ccccc21,inactive: -6.98%,–
Fc1ccc(SCCc2ccccn2)cc1,inactive: 11.5%,–
O=C(O)/C=C\C(=O)NCc1ccccc1,inactive: 1.23%,–
Cc1ccc(-n2c(-c3ccccc3)c[n+]3c2CCC3)cc1,–,active: 5.8 µM
C=CC[C@@H](CC(=O)N(CCO)Cc1ccccc1)C(=O)N[C@@H](C)COC(=O)[C@@H](CC=C)Cc1ccc(F)cc1,inactive: 9.66%,–

SMILES,"activity change, negative = inhibition",Potency
COc1ccc(OC)c(NC(=O)C2CCN(S(=O)(=O)c3ccc4c(c3)CC(C)N4C(C)=O)CC2)c1 (stereo not drawn),inactive: -19.9%,–
COC(=O)C1=C[C@@H](C(=O)OC)C2C3=C(C(=O)[C@@]2(C)NC(=O)c2ccccc2)[C@H](C)n2c(=O)n(-c4ccccc4)c(=O)n2[C@@H]3C1 (stereo partly drawn),inactive: 1.68%,–
COc1cc(C(CCN2CCOCC2)c2c(OC)cc(OC)c3c(C)cc(=O)oc23)cc(OC)c1OC (stereo not drawn),inactive: -2.01%,–
Oc1ccc(CNCc2ccccc2F)c2cccnc12,–,active: 1.3 µM
C[C@@]12CCC=C[C@H]1[C@H](c1ccc3ccccc3c1Br)N(Cc1ccccc1)C2=O,inactive: -17.3%,–
CN(C)c1ccc(O)c2c1CC1CC3[C@@H](N(C)C)C(=O)C(C(N)=O)=C(O)[C@]3(O)C(=O)C1=C2O (stereo partly drawn),inactive: -6.02%,–
Cc1ccc(NC(=O)CN(C)S(=O)(=O)c2ccc3c(c2)n(C)c(=O)c(=O)n3C)c(C)c1,inactive: 4.28%,–
O=S(=O)(c1ccc2ccccc2c1)N1CCOCC1,inactive: 15.7%,–
C[C@@H]1CC[C@]2(O[C@@H](CCO)C[C@@H](O)[C@@H]2O)O1,inactive: 3.4%,–
Cc1ccc(C)c(CNS(=O)(=O)c2ccc3c(c2)C(C)(C)C(=O)N3C)c1,inactive: -12.6%,–
O=C(Nc1ccc(-c2nc3ccccc3s2)cc1)c1cc(-n2cnnc2)ccc1Cl,–,active: 2.31 µM
COC(C[C@@H]1O[C@@H]1[C@@H](O)[C@H](C)OCc1ccccc1)OC,inactive: 17.7%,–
COC(=O)c1c(NC(=O)CSc2nncs2)sc2c1CCCCC2,–,active: 18.4 µM
CC(=O)Nc1ccc(/C=C/c2noc(-c3ccccc3O)n2)cc1,inactive: 24%,–
CC(=O)c1ccc(N2CCN(S(=O)(=O)c3cc4[nH]c(=O)c(=O)[nH]c4cc3C)CC2)cc1,inactive: 0.877%,–
CCOc1ccc(C(=O)C2CCN(CC(=O)Nc3ccccc3N3CCOCC3)CC2)cc1,–,active: 11.6 µM
O=C1Cc2cc(S(=O)(=O)N3CCN(c4cccc(Cl)c4)CC3)ccc2N1,inactive: -11.9%,–
COc1cccc(NC(=O)CCN2C(=O)c3ccccc3Sc3ncccc32)c1,inactive: -25.6%,–
CCOC(=O)CC(=O)Nc1ncnc2c1C(c1ccccc1)c1c(ccc3ccccc13)O2 (stereo not drawn),inactive: 8.85%,–
COc1ccc(-c2c(C#N)c(SCC(=O)c3cc4ccccc4oc3=O)nc(C)c2C(=O)Nc2ccccc2)cc1,–,active: 6.51 µM
COc1ccc(CC(=O)Nc2c(C(=O)N3CCN(c4ccccc4)CC3)oc3ccccc23)cc1OC,inactive: -0.793%,–
COc1ccc(CNC(=O)CCNS(=O)(=O)c2ccc3c(c2)oc(=O)n3C)cc1,inactive: 10.3%,–

SMILES,"activity change, negative = inhibition",Potency
CC(C)C[C@H](NC(=O)c1[nH]cnc1C(=O)N[C@H](C)c1ccccc1)C(=O)OCc1ccccc1,inactive: 2.72%,–
Cc1cccc(NC(=O)CN2CCN(C(=O)CN3C(=O)NC4(CC(C)CC(C)(C)C4)C3=O)CC2)c1C (stereo not drawn),–,active: 16.4 µM
Cc1nnc(N/N=C/c2cc([N+](=O)[O-])c(N3CCC(C)CC3)cc2N2CCC(C)CC2)n1N,–,active: 18.4 µM
COCCNC(=O)CCC(=O)NNc1nc2ccccc2c2nc(C)nn12,inactive: 4.74%,–
CCCc1cc(=O)[nH]c(SCC(=O)N2CCN(c3ccccc3)CC2)n1,inactive: 4.13%,–
COc1cccc(CNC(=O)Cn2ncc3c(=O)oc4ccccc4c32)c1,inactive: -4.56%,–
CC[C@H]1CCCCc2ccccc2[C@@H](C(=O)C[C@@H](O)CC(C)=O)OC1=O,inactive: 28.7%,–
CC[N+](CC)(CC#Cc1ccccc1)CC#Cc1ccccc1,–,active: 14.6 µM
COCCCNC(=O)c1cn(CC(C)C)c(=O)c2c1c1ccccc1n2C,inactive: 7.92%,–
COc1ccc(CCNC(=O)CN(c2ccccc2OC)S(=O)(=O)c2ccc(C)cc2)cc1,inactive: -21.9%,–
Cc1ccc(NC(=O)CSc2nc(C)c(Cc3ccccc3)c(=O)[nH]2)cc1,inactive: -8.28%,–
O=C(Nc1sc2c(c1C(=O)NCC1CCCO1)CCCC2)c1cccs1 (stereo not drawn),–,active: 20.6 µM
O=C(COC(=O)CNC(=O)c1ccccc1Cl)Nc1cc(C(F)(F)F)ccc1Cl,inactive: 15.5%,–
CC1(O)CC(c2ccc(Cl)cc2)=NN1C(=O)c1ccc([N+](=O)[O-])cc1 (stereo not drawn),–,active: 18.4 µM
Cc1cc2[nH]c(=O)c(=O)[nH]c2cc1S(=O)(=O)N1CCN(c2cccc(Cl)c2)CC1,inactive: -15.7%,–
Cn1nc(CC(=O)Nc2ccc(N3CCN(C(=O)OC(C)(C)C)CC3)cc2)c2ccccc2c1=O,–,active: 10.3 µM
CCOc1ccc(N/C(C)=C/C(=O)c2ccc3c(c2)OCCO3)cc1,inactive: 5.63%,–
COc1ccccc1N1CCN(C(=O)C2CCCN(S(=O)(=O)c3ccc4c(c3)CCCN4C(C)=O)C2)CC1 (stereo not drawn),–,active: 9.2 µM
COc1ccc(C2/C=C\CN(C(=O)c3ccc(C)cc3)CC(=O)N2Cc2ccc(F)cc2)cc1 (stereo not drawn),inactive: 9.96%,–
Cc1ccccc1N(C)S(=O)(=O)c1nnc(NC(=O)c2ccco2)s1,inactive: -5.73%,–
Cc1ccc(Oc2nnc(-c3cccs3)c3ccccc23)cc1C,–,active: 18.4 µM
NS(=O)(=O)c1ccc(CCNC(=O)C2CCN(c3ncnc4c3nc3n4CCCCC3)CC2)cc1,inactive: 13.9%,–
